# PMC12040169 (PLOS Biology, 2025)
# The other results are listed elsewhere or left out.
# System: T1, C. trachomatis L2/434/Bu expressing GFP (CTL2-GFP)
# T1 construct: L2/434/Bu GFP intracellular growth in HeLa cells
# Parameters: species or system HeLa; C. trachomatis total inclusion area by high-content imaging, normalised to DMSO
# Details: total inclusion area; 28.5 h, 10 µM; inhibitor
# Method in brief: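 Following bulk GFP and resorufin fluorescence reads, infected cells were fixed, Hoechst-stained and imaged on a high-content platform. Inclusion total area and number per well served as growth proxies; nuclei counts indicated host viability. MICs were derived as for the fluorescence assay.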
row,SMILES,% of control remaining
1,C=CCn1c(SCC(=O)Nc2cc(Cl)ccc2C)nnc1-c1ccccc1O [CBK266867],103.91
2,CC(C)(C)NS(=O)(=O)c1ccc(OCC(=O)O)cc1 [CBK287077],105.442
3,CC(=O)Nc1ccc(S(=O)(=O)Nc2ccccc2C(=O)O)cc1 [CBK042361],93.7548
4,COc1ncc(-c2cc(N3CCN(CCN(C)C)CC3)n3nccc3n2)c(OC)n1 [CBK037033],111.374
5,COC(=O)Nc1ncc(CN2CCCCC2)s1 [CBK268208],86.2714
6,COc1ccc([C@@]23CC/C(=N/NS(=O)(=O)c4ccc(C)cc4)C[C@@H]2N(Cc2ccccc2)CC3)cc1OC [CBK002717],101.075
7,COc1ccc(NC(=S)NC(=N)N2CCN(Cc3ccccc3)CC2)cc1 [CBK267858],106.191
8,CCn1cc(C2CN(S(=O)(=O)c3sc(C)nc3C)CCO2)cn1 (centres unmarked) [CBK305420],83.0501
9,CCN1CCCC1CN(Cc1cccs1)Cc1cnc(C)n1C (centres unmarked) [CBK282603],86.7292
10,COC(=O)c1ccc(NC(=O)c2c(Br)c(Br)c(Br)c(Br)c2C(=O)O)cc1 [CBK261321],103.919
11,CC(C)CCn1cc(C(=O)N2CCNCC2c2cccc(Cl)c2)nn1 (centres unmarked) [CBK304115],82.9865
12,COc1ccc2[nH]c(C(=O)N3CCn4nc(CO)cc4C3)c(C)c2c1 [CBK307302],62.4083
13,CCCc1[nH]nc(O)c1Cc1ccccc1-c1ccccc1 [CBK075034],94.1257
14,Cc1ccc(NC(=O)c2cnc3ccccc3c2)c(C)n1 [CBK200290],115.083
15,S=C(Nc1ncn(Cc2ccc(Cl)c(Cl)c2)n1)Nc1ccc(Br)cc1Cl [CBK266940],104.165
16,CN1CCCN(c2nccnc2-c2ccccc2CO)CC1 [CBK038014],140.648
17,Cc1ccc(S(=O)(=O)OC[C@H]2O[C@@H](n3ccc(=O)[nH]c3=O)C[C@H]2O)cc1 [CBK201283],122.94
18,O=C(O)Cc1cnnn1-c1ccc(Cl)cc1Cl [CBK288035],97.5859
19,CC1(C)Cc2nc3sc(C(=O)O)c(NC(=O)c4ccccc4)c3cc2CO1 [CBK266166],89.885
20,Cc1nnc2sc(-c3ccc(NC(=O)CSc4ccc(Cl)cc4)cc3)nn12 [CBK266800],82.6358
21,Cn1[nH]c(COC(C)(C)C)c(Cc2c(Cl)cccc2Cl)c1=O [CBK093521],84.2564
22,Cc1ccc2c(c1)N(C(=O)COc1nc3ccccc3s1)C(C)(C)c1ssc(=S)c1-2 [CBK262696],85.5005
23,O=C(Nc1ccc2oc(-c3cccnc3)nc2c1)c1cccc(OCc2ccccc2)c1 [CBK263420],117.618
24,CN(CC(=O)Nc1ccccc1-c1ccccc1)S(=O)(=O)c1ccc2ccccc2c1 [CBK267432],87.9982
25,O=C(O)CCCC(=O)N1CCN2C(=O)c3cc(Br)ccc3NC(=O)[C@@H]2C1 [CBK289581],107.592

row,SMILES,% of control remaining
1,OCc1ccccc1-c1cncc(NCc2cccs2)n1 [CBK065345],79.5603
2,CCN1C(=O)C2(CC(=O)N(CCc3scnc3C)C2=O)c2cc(C)ccc21 (centres unmarked) [CBK075217],100.983
3,Cc1cc(C)cc(NC(=O)C2C3C4CCC(C4)C23)c1 (centres unmarked) [CBK058768],67.7246
4,CCc1nccn1CCN1CCCC(COc2ccccc2F)C1 (centres unmarked) [CBK307416],30.2947
5,O=C(Nc1cccc(C(=O)O)c1)Nc1ccc(Cl)c(Cl)c1 [CBK155455G],88.0033
6,CN1CCN(c2cc(CNC(=O)c3ccnc(Cl)c3)ccn2)CC1 [CBK298275],58.1613
7,Cc1[nH]c2ccccc2c1[C@H]1CC[C@@H](NC(=O)c2ccnn2C)C1 [CBK284761],98.3057
8,COc1ccc(N2C(=S)N(Cc3cccs3)[C@H]3[C@@H](O)[C@H](O)C[C@@H](C(N)=O)[C@H]32)cc1 [CBK288929],89.5299
9,CCCCN(C)c1c(CC)nc2ccc(C(=O)NCCc3ccccn3)cn12 [CBK145441],61.7717
10,COc1cc2[nH]c(=S)n(CCc3ccc(S(N)(=O)=O)cc3)c(=O)c2cc1OC [CBK268457],91.3097
11,CS(=O)(=O)N1CCN(c2ccccc2NC(=O)COc2ccc(Cl)cc2)CC1 [CBK268854],110.594
12,CCN(CC)C(=O)C1CCCN(C(=O)NCc2cc(C)on2)C1 (centres unmarked) [CBK156114],85.7226
13,c1ccc(N2CCOCC2)c(COc2cncc(N3CCNCC3)n2)c1 [CBK172351G],97.8298
14,O=C1NC2(CC3CCC2N3Cc2ccco2)Nc2ccccc21 (centres unmarked) [CBK284446],115.681
15,COc1ccc(-c2cc(NC3CCCCC3)ncn2)cc1 [CBK090904],113.107
16,NNC(=O)c1cc2ccccc2cc1NS(=O)(=O)c1ccccc1 [CBK263261],101.384
17,Cc1nn(Cc2ccccc2)c(Cl)c1C=Cc1cc(C(=O)O)c2ccccc2n1 [CBK296942],91.4904
18,CC(CNC(=O)c1ccc([N+](=O)[O-])o1)N1CCc2sccc2C1 (centres unmarked) [CBK297749],70.2628
19,COCCn1c(CO)nnc1[C@H]1C[C@@H](NC(=O)c2ccc(O)c(F)c2)C1 [CBK307132],77.9683
20,CCNC(=O)Nc1ncc(-c2cc(OC)c(OC)c(OC)c2)c2cccnc12 [CBK070635],73.694
21,O=C(/C=C/c1ccc(C(=O)Nc2cccnc2)cc1)Nc1cccnc1 [CBK265617],100.751
22,NS(=O)(=O)c1cc(C(=O)NCCc2ccc(F)cc2)c(Cl)cc1Cl [CBK288512],58.1685
23,CCOc1ccc(OC(=O)c2ccc(OC(F)(F)F)cc2)cc1 [CBK149207],87.4077
24,O=C1CCCN1CCCNC(=O)N1CCCCC1CO (centres unmarked) [CBK155985],84.6652
25,O=C(O)CCNc1nc(Cc2ccccc2)nc2sc3c(c12)CCCC3 [CBK265345],88.925
